# The whole screen tested about 310,000 compounds, of which about 2,200 (0.71%) showed an effect of 50% or more. Effects have a minus sign here. The list shows a part of the results.
# Molecular target: human ether-à-go-go-related gene (hERG) potassium channel (human, UniProt Q12809)
# Assay: primary screen, population patch clamp on CHO cells stably expressing hERG
# Sequence of human ether-à-go-go-related gene (hERG) potassium channel (Q12809 whole entry, looked up): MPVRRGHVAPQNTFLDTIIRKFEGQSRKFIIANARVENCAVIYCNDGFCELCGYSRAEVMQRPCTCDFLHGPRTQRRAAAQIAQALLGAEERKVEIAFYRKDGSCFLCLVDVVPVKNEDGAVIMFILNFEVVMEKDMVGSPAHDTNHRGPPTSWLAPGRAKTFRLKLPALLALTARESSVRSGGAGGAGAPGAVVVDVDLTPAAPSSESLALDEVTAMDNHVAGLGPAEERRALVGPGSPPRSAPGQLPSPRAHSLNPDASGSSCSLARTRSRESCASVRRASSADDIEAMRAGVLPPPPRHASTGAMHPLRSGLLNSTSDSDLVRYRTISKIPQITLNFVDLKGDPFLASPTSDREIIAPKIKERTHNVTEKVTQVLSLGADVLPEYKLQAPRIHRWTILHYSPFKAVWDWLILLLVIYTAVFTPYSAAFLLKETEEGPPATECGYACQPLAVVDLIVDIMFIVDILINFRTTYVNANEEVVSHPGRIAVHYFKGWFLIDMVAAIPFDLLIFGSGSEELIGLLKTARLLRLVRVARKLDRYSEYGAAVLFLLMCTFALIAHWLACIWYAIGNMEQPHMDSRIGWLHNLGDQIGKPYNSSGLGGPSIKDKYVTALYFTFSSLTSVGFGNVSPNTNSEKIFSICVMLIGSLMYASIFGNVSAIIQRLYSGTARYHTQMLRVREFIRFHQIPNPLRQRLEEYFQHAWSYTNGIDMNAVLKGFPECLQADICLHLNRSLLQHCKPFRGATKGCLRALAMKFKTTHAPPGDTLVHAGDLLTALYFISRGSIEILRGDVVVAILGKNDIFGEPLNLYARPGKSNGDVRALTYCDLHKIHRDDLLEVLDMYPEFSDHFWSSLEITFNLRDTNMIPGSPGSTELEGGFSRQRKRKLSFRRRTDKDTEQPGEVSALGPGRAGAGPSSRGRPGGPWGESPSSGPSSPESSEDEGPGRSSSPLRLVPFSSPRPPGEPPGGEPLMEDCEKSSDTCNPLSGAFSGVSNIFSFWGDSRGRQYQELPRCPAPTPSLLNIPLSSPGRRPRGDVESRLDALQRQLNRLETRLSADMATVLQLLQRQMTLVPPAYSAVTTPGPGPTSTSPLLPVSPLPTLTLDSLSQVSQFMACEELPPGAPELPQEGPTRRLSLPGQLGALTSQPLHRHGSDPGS
row,Compound,"hERG current change (%, negative = inhibition) at 1uM [%]"
1,Cc1cccc(OCC(=O)NCCCNC(=O)c2cnccn2)c1,9.69
2,CCCc1cc(=O)oc2c(C)c(OC(C)C(=O)NCCN3CCOCC3)ccc12 (centres unmarked),-5.59
3,COc1ccc(-c2noc(CCC(=O)NC3CCCCC3)n2)cc1,10.6
4,O=C(Cc1cn(Cc2cccc(Cl)c2)c2ccccc12)N1CCCC1,3.34
5,O=C(COc1ccc2c(-c3ccccc3)cc(=O)oc2c1)NCC(O)c1ccccc1 (centres unmarked),-1.49
6,O=c1[nH]c(C2CCCN(S(=O)(=O)c3ccc(F)cc3)C2)nc2c1nnn2Cc1ccccc1 (centres unmarked),7.82
7,Cc1ccc(SCc2ccc(C(=O)N3CCCCC3)cc2)cc1,14.5
8,CC1CCC(NC(=O)c2ccc3nc[nH]c3c2)CC1 (centres unmarked),0.812
9,COc1cccc(/C=N/NC(=O)CNC(=O)c2ccc(S(=O)(=O)N3CCOCC3)cc2)c1OC,3.36
10,Nc1nc2n(n1)C(c1ccco1)CC(c1ccccc1)N2 (centres unmarked),-1.88
11,O=C(Nc1nnc(Cc2ccc(Cl)cc2)s1)c1ccncc1,10.3
12,COc1ccc(NC(=O)Nc2cccnc2)cc1,4.13
13,Cc1ccsc1C(=O)C1CCCN(Cc2cc3ccccc3o2)C1 (centres unmarked),0.734
14,Cn1c(CNC(=O)c2ccc(Cl)c(Cl)c2)nnc1SCC(=O)Nc1sc2c(c1C#N)CCCC2,11.2
15,COc1cc(OC)c(C=O)c(OC(=O)N2CCOCC2)c1,17.7
16,COc1ccc(-c2ccc(SCc3ccccn3)nn2)cc1OC,14.5
17,O=C(CN(C(=O)c1ccc2c(c1)OCCO2)c1ccccc1)NCC1CCCO1 (centres unmarked),19.6
18,CCOc1ccc(C(C)NC(=O)c2cccs2)cc1OCC (centres unmarked),5.69
19,O=C(CSc1nc(-c2ccccc2)nc2ccccc12)Nc1cccc(C(=O)O)c1,11.9
20,CC1CCCN(C(=O)c2ccc(Br)c(S(=O)(=O)N3CCOCC3)c2)C1 (centres unmarked),2.23
21,COc1cccc(CN(C)C(=O)c2cccc(S(=O)(=O)NCc3ccccc3)c2)c1OC,6.03
22,COc1ccc(/C=C(\NC(=O)c2ccc(OC)c(OC)c2)C(=O)N2CCN(C)CC2)cc1,2.66

row,Compound,"hERG current change (%, negative = inhibition) at 1uM [%]"
1,Cn1cc(C(=O)C(=O)NC2CCCCC2)c2ccccc21,7.31
2,CCOC(=O)c1sc(=NC(=O)c2ccc(OC(C)C)cc2)n(C)c1C,6.28
3,CC1CCc2c(sc(NC(=O)CCCn3cnc([N+](=O)[O-])n3)c2C(N)=O)C1 (centres unmarked),0.451
4,CC1Cc2ccccc2N1C(=O)CN1C(=O)NC(C)(CCc2ccccc2)C1=O (centres unmarked),-4.95
5,Cc1ccc(C(=O)NC2=NCCS2)cc1Cl,11.3
6,COC(=O)CN(c1nc(C)c(Cl)c(OC)n1)S(=O)(=O)c1ccc(C)cc1,-1.7
7,COc1ccc(C(=O)CCC(C)(C)[N+](=O)[O-])cc1OC,10.4
8,COCC(C)NC(=O)C1c2ccccc2Oc2ccccc21 (centres unmarked),9.45
9,COc1ccc(OCC(O)CN(C2CCCCC2)C2CCCCC2)cc1.Cl (centres unmarked),-37.9
10,CCc1cccc(C)c1NC(=O)c1ccccc1,8.47
11,CCc1ccc(C(=O)COc2ccc(NC(C)=O)cc2)cc1,-5.26
12,Cc1ccccc1NC(=S)NC(NC(=O)c1ccccc1C)C(Cl)(Cl)Cl (centres unmarked),10.6
13,O=C(Nc1ccc(Cl)cn1)c1cc2ccccc2o1,9.1
14,O=C(Nc1ccccc1-c1nnc(SCc2ccc(Cl)cc2Cl)o1)c1ccccc1,0.248
15,O=C(CSc1nnc(COc2ccc(F)cc2)o1)N1c2ccccc2CCc2ccccc21,9.76
16,O=C(CNC(=O)c1ccc(Cl)c([N+](=O)[O-])c1)OC1CCCCC1=O (centres unmarked),2.3
17,CCOc1ccc(NC(=O)CCC(=O)NNC(=O)COc2ccc(C)cc2Br)cc1,10.5
18,O=S(=O)(Nc1cccc(S(=O)(=O)N2CCCC2)c1)c1ccc(Cl)s1,-1.35
19,COc1cc(OC)cc(N2C(=O)CC(N3CCC(C(=O)N4CCCCC4)CC3)C2=O)c1 (centres unmarked),18.6
20,COc1ccccc1NC(=O)Cn1nnc(C(=O)Nc2ccccc2)c1N,6.23
21,Cc1ccc(/C=N/NC(=O)c2ccccn2)s1,23.6
22,Cc1ccccc1NC(=O)c1cccc(N2C(=O)C3C4CCC(C4)C3C2=O)c1 (centres unmarked),24.4
